Experimental data reported in PubChem BioAssay AID504467 (National Center for Advancing Translational Sciences (NCATS), 2011).
Out of some 330,000 compounds screened, about 7,700 (2.3%) were called active. About 26% were inconclusive and are not listed. The call rests on the fitted dose curve; in most records, active means well fitted inhibition curve with a large enough effect; inconclusive means small, poorly fitted or top-dose-only effect, or effect the other way; inactive means flat fitted curve, though single readings scatter. This is a selection; strong and weak results do not stand in their true shares.

Experiment: qHTS screen for small molecules that inhibit ELG1-dependent DNA repair in human embryonic kidney (HEK293T) cells expressing luciferase-tagged ELG1; further: nearly all actives have a fitted effect of over 55% in size
Settings: HEK293T ELG1-luciferase reporter, luminescence, 16 h, DNA damage induced by 5-fluorouridine; series mostly up to 46.1 µM; activity change, negative = inhibition: at the top concentration
From the text: NIH Molecular Libraries Probe Production Network [MLPCN] NIH Chemical Genomics Center [NCGC] MLPCN Grant: 1 R03 MH092164-01 Assay Provider: Kyungjae Myung, NHGRI, NIH Keywords: MLPCN, qHTS, NCGC, genotoxicity, cancer Assay Overview: Cancer cells divide rapidly compared to normal cells in the body. During cell division, cancer cells need to duplicate their genome by DNA replication. The failure of genome duplication leads to cancer cells' death. Therefore, inhibitors of DNA replication could specifically kill cancer cells. Based on this concept, many chemotherapeutic agents were developed and have been used to treat cancer patients. However, there are a limited number of agents available in the clinical setting, and some of those that do exist have low efficacy and severe side effects. Therefore, if we can find the compounds that effectively block DNA replication either by directly damaging DNA or by inhibiting other cellular mechanisms, the options for cancer treatment will be broadened. With this in mind, we developed a quantitative high-throughput ELG1-luciferase reporter gene assay. Small molecules that specifically block ELG1 function in response to DNA damage can be identified by monitoring the suppression of luciferase activity. Since ELG1 defines a pathway for repairing DNA damage, agents blocking ELG1 function can be used to sensitize cancer cells to chemotherapeutic agents whose mechanism of action involves the induction of DNA damage.
Assay Protocol Summary: For genotoxicity screening, 2,000 cells in 4 uL/well were dispensed into white, solid-bottom 1536-well plates using a solenoid-based dispenser. Following transfer of 1 uL 5-Fluorouridine and 23 nL compound or DMSO vehicle by a pin tool, the plates were incubated 16 hr at 37 °C and 5% CO2. 5 ul ONE-Glo (Promega) was then added to each plate and following a 30 min incubation at room temperature, luciferase activity was quantified on a ViewLux CCD-based plate reader.
On the % scale 0 is the no-effect control and ±100 the full control effect; potency means the concentration at half of the fitted maximal effect.

| Compound | activity change, negative = inhibition | Potency |
| --- | --- | --- |
| C=C(C)C1CC=C(C)/C(=N\NC(=O)CNc2ccccc2OC)C1 (centres undefined) | inactive: -9.23% | – |
| Cc1cc(C)cc(NCCC#N)c1 | inactive: -3.94% | – |
| O=C(C1=C[C@H](C2CCCCC2)C[C@H](OCc2ccc(CO)cc2)O1)N1CCN(Cc2ccc3c(c2)OCO3)CC1 | inactive: -13% | – |
| Cc1cc(C)nc(NS(=O)(=O)c2ccc(N/C=C\C(=O)c3ccc(Cl)cc3)cc2)n1 | inactive: -8.96% | – |
| COc1ccc2c(c1)OC[C@H]1[C@H]2N2C(=O)CN(CCc3c[nH]c4ccccc34)C(=O)[C@@]2(C)[C@H]1c1ccccc1 | – | active: 5.8 µM |
| COc1cc(NC(=O)CN2c3ccccc3CC2C)cc(OC)c1OC (centres undefined) | – | active: 16.4 µM |
| CC(=O)N1c2ccccc2[C@H](C)[C@H]1C | inactive: 27.8% | – |
| CCO[C@H]1OC(C(=O)NC2CC2)=C[C@@H](c2ccc(C(F)(F)F)cc2)[C@@H]1CCCO | inactive: 1.46% | – |
| O=C(C1=C[C@H](c2ccc(C(F)(F)F)cc2)C[C@H](OCCCCO)O1)N1CCN(Cc2ccccc2)CC1 | inactive: 1.73% | – |
| Cc1sc(N2C(=O)C3C4C=CC(C4)C3C2=O)c(C#N)c1C (centres undefined) | inactive: -0.627% | – |
| COC(=O)[C@@]12CCCCN1[C@H](c1ccc(-c3ccc(F)cc3)cc1)[C@@H]1C(=O)N(C)C(=O)[C@@H]12 | inactive: -29% | – |
| O=C(NC(Cc1ccccc1)C(=O)O)/C(=C\c1ccc(F)cc1)NC(=O)c1ccccc1 (centres undefined) | inactive: 6.78% | – |
| CC(=O)C[C@@H](O)CC(=O)[C@@H]1OC(=O)CC/C=C\Cc2ccccc21 | inactive: 2% | – |
| N=c1c2c(n(Cc3ccc(Cl)cc3)c3c1CCC3)CCC2 | – | active: 2.91 µM |
| CCOC(=O)[C@@H]1[C@H]2COc3cc(OC)ccc3[C@H]2N2C(=O)N(c3ccccc3)C(=O)[C@]12C | inactive: -12.6% | – |
| CN1CCN(C(=O)C2=C[C@H](c3ccccc3)C[C@H](OCc3ccc(CO)cc3)O2)CC1 | inactive: -1.55% | – |
| O=C(C[C@@H]1C/C=C/CC[C@@H](Cc2ccc(F)cc2)C(=O)OCCNC1=O)N[C@H](CO)Cc1ccccc1 | inactive: -16.9% | – |
| Cc1ccc(S(=O)(=O)N2CCOCC2)cc1C(=O)Nc1ccc(-c2cn3ccsc3n2)cc1 | – | active: 18.4 µM |
| O=C(CSc1ccc2nnc(-c3ccccc3)n2n1)N1CCCc2ccccc21 | – | active: 25.9 µM |
| c1ccc(-c2nnc(-c3ccccn3)nc2NC2CCCCC2)cc1 | – | active: 18.4 µM |
| COc1ccc2[nH]c3c4c(ccc3c2c1)C(=O)C=CC4=O | – | active: 16.4 µM |
| O=C(Cn1c[n+](CC(=O)c2ccc([N+](=O)[O-])cc2)cn1)c1ccc([N+](=O)[O-])cc1 | inactive: -10.4% | – |

| Compound | activity change, negative = inhibition | Potency |
| --- | --- | --- |
| CC(=O)C[C@H](O)CC(=O)[C@H]1OC(=O)CC/C=C\Cc2ccccc21 | inactive: 16.2% | – |
| COc1ccc(S(=O)(=O)N2CCC(C(=O)Nc3ccccc3C)CC2)c2cccnc12 | – | active: 18.4 µM |
| COc1ccc(S(=O)(=O)N(C)C[C@H]2Oc3c(NC(=O)Nc4c(C)noc4C)cccc3C(=O)N([C@@H](C)CO)C[C@H]2C)cc1 | inactive: -4.15% | – |
| Cc1cccc(Nc2nc(N)c([N+](=O)[O-])c(N3CCCC(C)C3)n2)c1 (centres undefined) | – | active: 25.9 µM |
| Oc1ccc2ccccc2c1N=Nc1ccc(F)cc1 | inactive: -6.38% | – |
| O=C(CSc1nnc(SCc2ccccc2)s1)N/N=C/C=C/c1ccco1 | inactive: 11.2% | – |
| CC(C)[N+]1(C)[C@@H]2CC[C@@H]1CC(OC(=O)C(CO)c1ccccc1)C2 (some centres undefined) | inactive: 16.9% | – |
| CCOC(=O)c1cnc(-n2nc(C)cc2C)nc1Nc1ccc(O)cc1 | – | active: 4.11 µM |
| CC(C)(C)OC(=O)C[C@@H]1C/C=C\C[C@@H](CC(=O)N[C@@H](CO)Cc2ccccc2)C(=O)N2CCC[C@@H]2COC1=O | inactive: -4.16% | – |
| COC(=O)[C@H]1C[C@@H]1[C@H](NC(=O)c1ccccc1)c1ccccc1 | inactive: 4.61% | – |
| COc1ccc(CCNc2nc(-c3ccc(O)cc3)cs2)cc1OC | – | active: 23.1 µM |
| C[C@H](CO)N1C[C@H](C)[C@@H](CN(C)Cc2ccncc2)Oc2c(NC(=O)C3CC3)cccc2C1=O | inactive: 18% | – |
| CC/C=C(\NC(C)=O)c1ccccc1 | inactive: 6.48% | – |
| C[C@@H](C(=O)Nc1ccc2ccccc2c1)[C@@H]1C[C@@]1(C)[C@@H](NC(=O)c1cccnc1)c1ccccc1 | inactive: -3.05% | – |
| Nc1ncnc2nc[nH]c12 | inactive: 2.24% | – |
| CCO[C@H]1OC(C(=O)NCc2ccccc2)=C[C@@H](C2CC2)[C@@H]1CCCO | inactive: 0% | – |
| C[C@H](CO)N1C[C@H](C)[C@@H](CN(C)C(=O)NC2CCCCC2)Oc2c(NS(=O)(=O)c3ccc(F)cc3)cccc2C1=O | inactive: 17.9% | – |
| CCOc1ccc(N2CC(C(=O)NCCN3C(=O)S/C(=C\c4cccnc4)C3=O)CC2=O)cc1 (centres undefined) | inactive: -17.4% | – |
| C[C@H]1CC[C@@]2(O[C@H](CCO)C[C@@H](O)[C@@H]2O)O1 | inactive: 25.2% | – |
| CC(NCCc1ccc(O)cc1)C(O)c1ccc(O)cc1 (centres undefined) | inactive: 19.6% | – |
| C=CCn1c(SCC(=O)c2cccs2)nc2sc(CC)cc2c1=O | – | active: 20.6 µM |
| O=C(NCC1CCCO1)/C(=C\c1ccc(Cl)cc1)NC(=O)c1ccccc1 (centres undefined) | inactive: 16.8% | – |
